{
  "source": "PubChem BioAssay AID485281",
  "about": "(National Center for Advancing Translational Sciences (NCATS), 2010)",
  "note": "The whole screen tested about 350,000 compounds, of which about 260 (0.074%) were called active. Inconclusive means that the source gave no clear call. Such entries were picked first, then a sample of the others. Calls follow the shape of the dose curve; as a rule, active = well fitted inhibition curve with a large enough effect; inconclusive = small, poorly fitted or top-dose-only effect; inactive = no such curve, though single readings can be large or run the other way. Potencies of inconclusive entries are doubtful fits and often do not repeat. Potency is read from the fitted curve at half-maximal effect; tags tell the direction and shape of the fitted curve.",
  "data": [
    {"target": "Ferritin light chain (Equus caballus) (UniProt P02791)", "sequence (P02791 whole entry, looked up)": "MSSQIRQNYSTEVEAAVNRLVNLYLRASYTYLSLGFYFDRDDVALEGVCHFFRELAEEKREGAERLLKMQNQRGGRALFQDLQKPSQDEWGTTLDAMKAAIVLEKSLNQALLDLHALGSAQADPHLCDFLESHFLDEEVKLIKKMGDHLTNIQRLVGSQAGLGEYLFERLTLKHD", "assay": "qHTS Assay for Identification of Novel General Anesthetics; also: nearly all actives have a fitted effect of over 20% in size", "settings": "apoferritin/1-aminoanthracene competitive binding, fluorescence; series mostly up to 77.5 µM", "outline": "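Read-out: endpoint 1-AMA fluorescence, excitation 380 nm and emission 535 nm, after compounds sit 10 min at room temperature with 10 uM horse-spleen apoferritin in 50% saturated 1-AMA/PBS. Values come from four-parameter Hill fits.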", "values": [
      {"smiles": "CC(C)N(CCc1ccncc1)C(=O)Nc1ccc(Cl)c(Cl)c1", "Potency": "inconclusive: 35.5 µM [inhibitor, partial curve]"},
      {"smiles": "COc1ccc(-n2c(C)c([N+](=O)[O-])c3ccc(O)c(CN4CCCCC4)c32)cc1", "Potency": "inconclusive: 15.8 µM [inhibitor, partial curve]"},
      {"smiles": "CCOC(=O)c1sc(=S)n(-c2ccccc2Cl)c1SC", "Potency": "inconclusive: 39.8 µM [inhibitor, partial curve]"},
      {"smiles": "CC(C)COc1cccc(C(=O)Nc2ccc(S(=O)(=O)N3CCOCC3)cc2)c1", "Potency": "inconclusive: 28.2 µM [inhibitor, single point]"},
      {"smiles": "O=[N+]([O-])c1cc(/C=N/O)ccc1Oc1ccccc1Cl", "Potency": "inconclusive: 25.1 µM [inhibitor, partial curve]"},
      {"smiles": "c1csc(-c2csc(-c3cccs3)n2)c1", "Potency": "inconclusive: 3.98 µM [inhibitor, full curve, poor fit]"},
      {"smiles": "O=c1c2ccccc2ncn1Cc1ccc(Cl)c(Cl)c1", "Potency": "inconclusive: 22.4 µM [inhibitor, partial curve]"},
      {"smiles": "O=C(Nc1nc2c(F)cc(F)cc2s1)c1ccc(S(=O)(=O)N2CCc3ccccc32)cc1", "Potency": "inactive"},
      {"smiles": "CCN1C(C(=O)c2ccccc2)=C(OC(=O)COc2ccc(C)cc2)c2ccccc2S1(=O)=O", "Potency": "inactive"},
      {"smiles": "CCC(=O)N1CCc2cc(S(=O)(=O)NCCC(=O)N3CC=C(c4ccccc4)CC3)ccc21", "Potency": "inconclusive: 20 µM [inhibitor, partial curve]"},
      {"smiles": "Cc1ccccc1-c1noc(CSc2nc3ccccc3[nH]2)n1", "Potency": "inconclusive: 31.6 µM [inhibitor, partial curve]"},
      {"smiles": "CCOC(=O)c1ccc(CNC(=O)CSc2nnnn2-c2ccc(Cl)cc2)o1", "Potency": "inconclusive: 39.8 µM [inhibitor, single point]"},
      {"smiles": "Cc1ccc(S(=O)(=O)N2CCC(C)CC2)cc1[N+](=O)[O-]", "Potency": "inconclusive: 39.8 µM [inhibitor, single point]"},
      {"smiles": "O=C(CCn1nc(-c2ccc(Cl)cc2)ccc1=O)N1CCN(c2ccc(F)cc2)CC1", "Potency": "inconclusive: 20 µM [inhibitor, partial curve]"},
      {"smiles": "Cc1cc(Nc2ccc(Br)cc2)nc(C)n1", "Potency": "inconclusive: 31.6 µM [inhibitor, single point]"},
      {"smiles": "COc1cc2c(c(OC)c1OC)-c1ccc(NC(=O)c3ccc(F)cc3)c(=O)cc1[C@@H](NC(C)=O)CC2", "Potency": "inconclusive: 14.1 µM [inhibitor, partial curve]"},
      {"smiles": "O=C(Nc1ccc(N2CCCC2)c(Cl)c1)c1ccc(Br)o1", "Potency": "inconclusive: 11.2 µM [inhibitor, partial curve, poor fit]"},
      {"smiles": "Cc1cccc(NC(=O)COC(=O)CNC(=O)C2CCCCC2)c1", "Potency": "inconclusive: 8.91 µM [inhibitor, full curve]"},
      {"smiles": "COc1ccc(N=Nc2cc(-c3ccccc3)ccc2O)cc1", "Potency": "inconclusive: 39.8 µM [inhibitor, partial curve]"},
      {"smiles": "COc1ccccc1CNC(=O)Cc1csc2nc(-c3ccc(F)cc3)cn12", "Potency": "inconclusive: 5.01 µM [inhibitor, full curve]"},
      {"smiles": "C=CCn1cc(C(=O)NCC2CCCO2)c(=O)c2cc(S(=O)(=O)N3CCCCCC3)ccc21", "note": "(stereo not drawn)", "Potency": "inconclusive: 44.7 µM [inhibitor, partial curve]"},
      {"smiles": "COc1ccc(-n2cnnc2SCC(=O)NCc2cccs2)cc1", "Potency": "inconclusive: 35.5 µM [inhibitor, partial curve]"},
      {"smiles": "COc1ccc(C2=Nn3c(nnc3-c3ccc(OC)cc3OC)SC2)c(OC)c1", "Potency": "inactive"},
      {"smiles": "O=C(COc1ccc(F)cc1)N(Cc1cccc(Br)c1)C1CCS(=O)(=O)C1", "note": "(stereo not drawn)", "Potency": "inconclusive: 39.8 µM [inhibitor, single point]"},
      {"smiles": "O=C(c1ccccc1)c1ccccc1N/C=C/c1nnnn1-c1ccccc1", "Potency": "inconclusive: 17.8 µM [inhibitor, partial curve]"},
      {"smiles": "CCOC(=O)c1cnn(-c2nc(-c3ccc(F)cc3)cs2)c1C(F)(F)F", "Potency": "inactive"},
      {"smiles": "CNc1nc(Sc2cccc(C(F)(F)F)c2)cc(C(F)(F)F)n1", "Potency": "inconclusive: 28.2 µM [inhibitor, partial curve]"},
      {"smiles": "Cc1nc2cc(NS(=O)(=O)c3cccc4cccnc34)ccc2s1", "Potency": "inconclusive: 39.8 µM [inhibitor, partial curve]"},
      {"smiles": "CC(C)(C)c1ccc(SCC(N)=O)cc1", "Potency": "inconclusive: 20 µM [inhibitor, partial curve]"},
      {"smiles": "Cc1cc(O)cc(C)c1Cl", "Potency": "inconclusive: 17.8 µM [inhibitor, partial curve]"},
      {"smiles": "COc1cc(-c2nc3sccn3c2Nc2c(C)cccc2C)ccc1O", "Potency": "inconclusive: 20 µM [inhibitor, partial curve]"},
      {"smiles": "CC1(c2ccc(NC(=O)c3ccccc3F)cc2)CC1(Cl)Cl", "note": "(stereo not drawn)", "Potency": "inconclusive: 20 µM [inhibitor, partial curve]"},
      {"smiles": "CCc1nc(SCC(=O)c2cc(C)ccc2C)n[nH]1", "Potency": "inactive"},
      {"smiles": "Cc1ccc(-c2nc(CS(=O)CC(=O)NC3CCC(C)CC3)c(C)o2)cc1", "note": "(stereo not drawn)", "Potency": "inconclusive: 14.1 µM [inhibitor, partial curve]"},
      {"smiles": "O=C(CC1N=C2c3ccccc3N=C(SCc3ccc(F)cc3)N2C1=O)NCCc1ccccc1", "note": "(stereo not drawn)", "Potency": "inconclusive: 25.1 µM [inhibitor, partial curve]"},
      {"smiles": "COc1ccc2[nH]c3c(c2c1)CCN(C(=O)CCC1CCCC1)C3c1ccc(F)cc1", "note": "(stereo not drawn)", "Potency": "inactive"},
      {"smiles": "O=C(c1cccc2ccccc12)N1CCCCC1", "Potency": "inconclusive: 31.6 µM [inhibitor, single point]"},
      {"smiles": "Cc1cc(F)ccc1S(=O)(=O)NCC1CC2CCC1C2", "note": "(stereo not drawn)", "Potency": "inconclusive: 25.1 µM [inhibitor, partial curve]"},
      {"smiles": "COC(=O)CCC(=O)CN", "Potency": "inactive"},
      {"smiles": "Cc1ccc(C)c(-c2nn(-c3cc(N4CCN(CCO)CC4)ccc3[N+](=O)[O-])c(=O)c3ccccc23)c1", "Potency": "inconclusive: 39.8 µM [inhibitor, partial curve]"},
      {"smiles": "CCn1c(=O)c2cc(C(=O)NCc3cc(OC)ccc3OC)sc2c2ccccc21", "Potency": "inactive"},
      {"smiles": "COC(=O)c1ccc(/C=N/NC(=O)c2cccc(F)c2)cc1", "Potency": "inactive"},
      {"smiles": "COc1ccc(Cl)cc1NCc1nnc2n1CCCCC2", "Potency": "inconclusive: 5.01 µM [inhibitor, full curve]"}
    ]}
  ]
}
